Our source for the cell count values is the supplement of paper PMC4604168 (melanoma cell lines).

Test systems include A101D; A2058; A375.
Holding throughout (experiment): cell count relative to DMSO control; melanoma cells; higher = more viable cells
Details in all cases: library dose: standard library concentration; 72 h

SMILES strings stand for the structures. This is one part of the list. Many values rest on one well or one pass, so single values are uncertain.
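Note: cells treated in 1,536-well plates, then fixed and DAPI-stained, with nuclei counted from automated high-throughput microscope images.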

In the case of `Nc1ccn([C@@H]2O[C@H](CO)[C@@H](O)C2(F)F)c(=O)n1` [gemcitabine] + Cn1nnc2c(C(N)=O)ncn2c1=O [temozolomide] (first compound 0.002 µM, partner dose 10 µM), the cell count with A101D was 74.7%; with A2058, 41.4%; in the test on A375 it was 89.8%.

As to `Nc1ncn([C@H]2C[C@H](O)[C@@H](CO)O2)c(=O)n1` [decitabine] + O=C(O)C(=O)Nc1sc2c(c1C(=O)O)CCNC2 [TCS401] (first compound 0.5 µM, partner dose 8.33333 µM), the cell count is 71.5% in the test with A101D, 78.8% in the test on A2058 and 188% with A375.

In the case of `CC(=O)O[C@@]12CO[C@@H]1C[C@H](O)[C@@]1(C)C(=O)[C@H](O)C3=C(C)[C@@H](OC(=O)[C@H](O)[C@@H](NC(=O)OC(C)(C)C)c4ccccc4)C[C@@](O)([C@@H](OC(=O)c4ccccc4)[C@H]21)C3(C)C` [Docetaxel] + Cc1cc(Nc2cc(N3CCN(C)CC3)nc(/C=C/c3ccccc3)n2)n[nH]1 [ENMD2076] (first compound 0.0005 µM, partner dose 0.2 µM), the cell count in the test on A101D was 54%; in the test on A2058 it was 15.5%; with A375 it was 71.5%.

`CC(=O)O[C@@]12CO[C@@H]1C[C@H](O)[C@@]1(C)C(=O)[C@H](O)C3=C(C)[C@@H](OC(=O)[C@H](O)[C@@H](NC(=O)OC(C)(C)C)c4ccccc4)C[C@@](O)([C@@H](OC(=O)c4ccccc4)[C@H]21)C3(C)C` [Docetaxel] + O=C(CCCCCCC(=O)Nc1ccccc1)NO [vorinostat] (first compound 0.0005 µM, partner dose 0.4 µM): the cell count worked out at 70.3% in the test on A101D, 5.46% in the test on A2058 and 83.3% with A375.

Consider `CC(=O)O[C@@]12CO[C@@H]1C[C@H](O)[C@@]1(C)C(=O)[C@H](O)C3=C(C)[C@@H](OC(=O)[C@H](O)[C@@H](NC(=O)OC(C)(C)C)c4ccccc4)C[C@@](O)([C@@H](OC(=O)c4ccccc4)[C@H]21)C3(C)C` [Docetaxel] + O=C(O)c1ccc2c(c1)nc(Nc1cccc(Cl)c1)c1ccncc12 [CX4945] (first compound 0.0005 µM, partner dose 2 µM), for which the cell count was determined as 40.8% with A101D, 12.7% in the test on A2058 and 48.9% in the test on A375.

Regarding `Nc1ncn([C@H]2C[C@H](O)[C@@H](CO)O2)c(=O)n1` [decitabine] + CO[C@@H]1[C@H](N(C)C(=O)c2ccccc2)C[C@H]2O[C@]1(C)n1c3ccccc3c3c4c(c5c6ccccc6n2c5c31)C(=O)NC4 [Midostaurin] (first compound 0.5 µM, partner dose 0.4 µM), the cell count is 68.1% with A101D, 41.9% in the test on A2058 and 76.4% with A375.

As to `Nc1nc(F)nc2c1ncn2[C@@H]1O[C@H](CO)[C@@H](O)[C@@H]1O` [fludarabine] + Cc1nc(Nc2ncc(C(=O)Nc3c(C)cccc3Cl)s2)cc(N2CCN(CCO)CC2)n1 [dasatanib] (first compound 1 µM, partner dose 0.02 µM), the cell count with A101D was 74.9%; in the test on A2058 it was 48.5%; in the test on A375 it was 33%.

For the molecule `CC(=O)c1c(C)c2cnc(Nc3ccc(N4CCNCC4)cn3)nc2n(C2CCCC2)c1=O` [palbociclib] + CN(NC(=O)CC(=O)NN(C)C(=S)c1ccccc1)C(=S)c1ccccc1 [STA4783] (first compound 0.2 µM, partner dose 0.03 µM), the cell count in the test on A101D came to 61.1%; with A2058, 16.2%; with A375, 85.3%.

Consider `Nc1nc(F)nc2c1ncn2[C@@H]1O[C@H](CO)[C@@H](O)[C@@H]1O` [fludarabine] + OCc1c[nH]c2ccccc12 [Indole-3-carbinol] (first compound 1 µM, partner dose 4 µM), for which the results for the cell count in the test with A101D, in the test with A2058 and in the test on A375 were 84.3%, 99.6% and 31.6%, respectively.

Turning to `CC(=O)O[C@@]12CO[C@@H]1C[C@H](O)[C@@]1(C)C(=O)[C@H](O)C3=C(C)[C@@H](OC(=O)[C@H](O)[C@@H](NC(=O)OC(C)(C)C)c4ccccc4)C[C@@](O)([C@@H](OC(=O)c4ccccc4)[C@H]21)C3(C)C` [Docetaxel] + COc1cc(Nc2ncc(F)c(Nc3ccc4c(n3)NC(=O)C(C)(C)O4)n2)cc(OC)c1OC [Tamatinib] (first compound 0.0005 µM, partner dose 2 µM), the cell count in the test with A101D turned out to be 21.7%; in the test with A2058, 3.95%; with A375 it was 61.4%.

Consider `CO[C@H]1C[C@@H]2CC[C@@H](C)[C@@](O)(O2)C(=O)C(=O)N2CCCC[C@H]2C(=O)O[C@H]([C@H](C)C[C@@H]2CC[C@@H](OCCO)[C@H](OC)C2)CC(=O)[C@H](C)/C=C(\C)[C@@H](O)[C@@H](OC)C(=O)[C@H](C)C[C@H](C)/C=C/C=C/C=C/1C` [everolimus] + Cn1nnc2c(C(N)=O)ncn2c1=O [temozolomide] (first compound 0.1 µM, partner dose 10 µM), for which the results for the cell count in the test on A101D, with A2058 and in the test with A375 were 70.4%, 39.5% and 82%, respectively.

For the molecule `CO[C@H]1C[C@@H]2CC[C@@H](C)[C@@](O)(O2)C(=O)C(=O)N2CCCC[C@H]2C(=O)O[C@H]([C@H](C)C[C@@H]2CC[C@@H](OCCO)[C@H](OC)C2)CC(=O)[C@H](C)/C=C(\C)[C@@H](O)[C@@H](OC)C(=O)[C@H](C)C[C@H](C)/C=C/C=C/C=C/1C` [everolimus] + C[C@@H]1CCN(C(=O)CC#N)C[C@@H]1N(C)c1ncnc2[nH]ccc12 [CP690550] (first compound 0.1 µM, partner dose 5 µM), the cell count in the test with A101D was found to be 67.8%; in the test with A2058, 60.6%; in the test on A375, 88.7%.

As for `Nc1ccn([C@@H]2O[C@H](CO)[C@@H](O)C2(F)F)c(=O)n1` [gemcitabine] + Cn1cncc1[C@@](N)(c1ccc(Cl)cc1)c1ccc2c(c1)c(-c1cccc(Cl)c1)cc(=O)n2C [tipifarnib] (first compound 0.002 µM, partner dose 0.05 µM), the cell count in the test on A101D worked out at 97.5%; in the test on A2058, 59.3%; in the test on A375, 103%.

In the case of `CO[C@H]1C[C@@H]2CC[C@@H](C)[C@@](O)(O2)C(=O)C(=O)N2CCCC[C@H]2C(=O)O[C@H]([C@H](C)C[C@@H]2CC[C@@H](OCCO)[C@H](OC)C2)CC(=O)[C@H](C)/C=C(\C)[C@@H](O)[C@@H](OC)C(=O)[C@H](C)C[C@H](C)/C=C/C=C/C=C/1C` [everolimus] + CCCS(=O)(=O)Nc1ccc(F)c(C(=O)c2c[nH]c3ncc(Cl)cc23)c1F [PLX4720] (first compound 0.1 µM, partner dose 0.4 µM), the cell count in the test with A101D was found to be 61%; in the test with A2058, 75.6%; with A375, 90.9%.

`Nc1nc(F)nc2c1ncn2[C@@H]1O[C@H](CO)[C@@H](O)[C@@H]1O` [fludarabine] + CC(C)(C)c1cnc(CSc2cnc(NC(=O)C3CCNCC3)s2)o1 [SNS-032] (first compound 1 µM, partner dose 0.05 µM): the cell count in the test with A101D was determined as 87%; with A2058, 91.8%; in the test on A375, 40%.

`CO[C@H]1C[C@@H]2CC[C@@H](C)[C@@](O)(O2)C(=O)C(=O)N2CCCC[C@H]2C(=O)O[C@H]([C@H](C)C[C@@H]2CC[C@@H](OCCO)[C@H](OC)C2)CC(=O)[C@H](C)/C=C(\C)[C@@H](O)[C@@H](OC)C(=O)[C@H](C)C[C@H](C)/C=C/C=C/C=C/1C` [everolimus] + Nc1ncn([C@H]2C[C@H](O)[C@@H](CO)O2)c(=O)n1 [decitabine] (first compound 0.1 µM, partner dose 0.5 µM): the cell count with A101D came to 83.1%; with A2058, 51%; in the test on A375 it was 84.8%.

For `Nc1ccn([C@@H]2O[C@H](CO)[C@@H](O)C2(F)F)c(=O)n1` [gemcitabine] + C=CCNC1=C2C[C@@H](C)C[C@H](OC)[C@H](O)[C@@H](C)/C=C(\C)[C@H](OC(N)=O)[C@@H](OC)/C=C\C=C(/C)C(=O)NC(=CC1=O)C2=O [Tanespimycin] (first compound 0.002 µM, partner dose 0.01 µM), the cell count in the test with A101D is 60.7%; in the test with A2058, 31%; with A375, 109%.

Regarding `CC(=O)c1c(C)c2cnc(Nc3ccc(N4CCNCC4)cn3)nc2n(C2CCCC2)c1=O` [palbociclib] + CO[C@@H]1[C@H](N(C)C(=O)c2ccccc2)C[C@H]2O[C@]1(C)n1c3ccccc3c3c4c(c5c6ccccc6n2c5c31)C(=O)NC4 [Midostaurin] (first compound 0.2 µM, partner dose 0.4 µM), the cell count is 60.3% in the test with A101D, 77.6% in the test with A2058 and 65.9% with A375.

In the case of `Nc1ccn([C@@H]2O[C@H](CO)[C@@H](O)C2(F)F)c(=O)n1` [gemcitabine] + Nc1ncn([C@H]2C[C@H](O)[C@@H](CO)O2)c(=O)n1 [decitabine] (first compound 0.002 µM, partner dose 0.5 µM), the results for the cell count with A101D, with A2058 and with A375 were 77.2%, 39.6% and 113%, respectively.

Consider `Nc1nc(F)nc2c1ncn2[C@@H]1O[C@H](CO)[C@@H](O)[C@@H]1O` [fludarabine] + CO[C@@H]1[C@H](N(C)C(=O)c2ccccc2)C[C@H]2O[C@]1(C)n1c3ccccc3c3c4c(c5c6ccccc6n2c5c31)C(=O)NC4 [Midostaurin] (first compound 1 µM, partner dose 0.4 µM), for which the cell count in the test on A101D is 65.9%; in the test on A2058, 49.3%; with A375, 20.3%.

On to `Nc1ncn([C@H]2C[C@H](O)[C@@H](CO)O2)c(=O)n1` [decitabine] + O=C(O)c1ccc(-c2c[nH]c3ncc(-c4ccccc4)cc23)cc1C1CCCC1 [GSK650394] (first compound 0.5 µM, partner dose 0.8 µM), for which the cell count with A101D was 77.5%; in the test on A2058, 83.5%; in the test on A375, 90.5%.

Regarding `CC(=O)O[C@@]12CO[C@@H]1C[C@H](O)[C@@]1(C)C(=O)[C@H](O)C3=C(C)[C@@H](OC(=O)[C@H](O)[C@@H](NC(=O)OC(C)(C)C)c4ccccc4)C[C@@](O)([C@@H](OC(=O)c4ccccc4)[C@H]21)C3(C)C` [Docetaxel] + NC1(c2ccc(-c3nc4ccn5c(=O)[nH]nc5c4cc3-c3ccccc3)cc2)CCC1 [MK2206] (first compound 0.0005 µM, partner dose 2 µM), the cell count in the test on A101D amounted to 48%; in the test on A2058, 5.22%; with A375, 81.4%.
